{
  "source": "the supplement of paper PMC8728848",
  "binders": {"B1": {"name": "Siglec-9 (Homo sapiens), Q9Y336 (protein)", "chain": "MLLLLLPLLWGRERAEGQTSKLLTMQSSVTVQEGLCVHVPCSFSYPSHGWIYPGPVVHGYWFREGANTDQDAPVATNNPARAVWEETRDRFHLLGDPHTKNCTLSIRDARRSDAGRYFFRMEKGSIKWNYKHHRLSVNVTALTHRPNILIPGTLESGCPQNLTCSVPWACEQGTPPMISWIGTSVSPLDPSTTRSSVLTLIPQPQDHGTSLTCQVTFPGASVTTNKTVHLNVSYPPQNLTMTVFQGDGTVSTVLGNGSSLSLPEGQSLRLVCAVDAVDSNPPARLSLSWRGLTLCPSQPSNPGVLELPWVHLRDAAEFTCRAQNPLGSQQVYLNVSLQSKATSGVTQGVVGGAGATALVFLSFCVIFVVVRSCRKKSARPAAGVGDTGIEDANAVRGSASQGPLTEPWAEDSPPDQPPPASARSSVGEGELQYASLSFQMVKPWDSRGQEATDTEYSEIKIHR"}},
  "assay_in_all_cases": "glycan array binding signal (z-score within array); higher = stronger binding",
  "details_in_all_cases": "glycan notation: IUPAC condensed, linker removed",
  "key": {"[1]": {"molecular_target": "Fuc(a1-2)[GalNAc(a1-3)]Gal(b1-3)GlcNAc(b1-3)GalNAc", "method_in_brief": "(§1)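 Glycan array data came from 3228 arrays in the Consortium for Functional Glycomics database, and only arrays with an available protein sequence were kept. Glycan names were put into IUPAC-condensed notation, and columns mapping to the same glycan were averaged. The binding signal is a within-array Z-score, averaged across arrays of one protein sequence run at different concentrations or buffers and across linkers. A negative Z-score can be read as non-binding.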"}, "[2]": {"molecular_target": "Fuc(a1-2)[GalNAc(a1-3)]Gal(b1-3)GlcNAc(b1-6)GalNAc", "method_in_brief": "as §1"}, "[3]": {"molecular_target": "Fuc(a1-2)[GalNAc(a1-3)]Gal(b1-4)Glc", "method_in_brief": "as §1"}, "[4]": {"molecular_target": "Fuc(a1-2)[GalNAc(a1-3)]Gal(b1-4)GlcNAc", "method_in_brief": "as §1"}, "[5]": {"molecular_target": "Fuc(a1-2)[GalNAc(a1-3)]Gal(b1-4)GlcNAc(b1-2)Man", "method_in_brief": "as §1"}, "[6]": {"molecular_target": "Fuc(a1-2)[GalNAc(a1-3)]Gal(b1-4)GlcNAc(b1-2)Man(a1-3)[Fuc(a1-2)[GalNAc(a1-3)]Gal(b1-4)GlcNAc(b1-2)Man(a1-6)]Man(b1-4)GlcNAc(b1-4)GlcNAc", "method_in_brief": "as §1"}, "[7]": {"molecular_target": "Fuc(a1-2)[GalNAc(a1-3)]Gal(b1-4)GlcNAc(b1-2)Man(a1-3)[Fuc(a1-2)[GalNAc(a1-3)]Gal(b1-4)GlcNAc(b1-2)Man(a1-6)]Man(b1-4)GlcNAc(b1-4)[Fuc(a1-6)]GlcNAc", "method_in_brief": "as §1"}, "[8]": {"molecular_target": "Fuc(a1-2)[GalNAc(a1-3)]Gal(b1-4)GlcNAc(b1-3)Gal(b1-4)GlcNAc", "method_in_brief": "as §1"}, "[9]": {"molecular_target": "Fuc(a1-2)[GalNAc(a1-3)]Gal(b1-4)GlcNAc(b1-3)Gal(b1-4)GlcNAc(b1-3)Gal(b1-4)GlcNAc", "method_in_brief": "as §1"}, "[10]": {"molecular_target": "Fuc(a1-2)[GalNAc(a1-3)]Gal(b1-4)GlcNAc(b1-3)GalNAc", "method_in_brief": "as §1"}, "[11]": {"molecular_target": "Fuc(a1-2)[GalNAc(a1-3)]Gal(b1-4)GlcNAc(b1-3)[Fuc(a1-2)[GalNAc(a1-3)]Gal(b1-4)GlcNAc(b1-6)]GalNAc", "method_in_brief": "as §1"}, "[12]": {"molecular_target": "Fuc(a1-2)[GalNAc(a1-3)]Gal(b1-4)GlcNAc(b1-6)GalNAc", "method_in_brief": "as §1"}, "[13]": {"molecular_target": "Fuc(a1-2)[GalNAc(a1-3)]Gal(b1-4)[Fuc(a1-3)]GlcNAc", "method_in_brief": "as §1"}, "[14]": {"molecular_target": "Fuc(a1-2)[GalNAc(a1-3)]Gal(b1-4)[Fuc(a1-3)]GlcNAc(b1-3)GalNAc", "method_in_brief": "as §1"}, "[15]": {"molecular_target": "Fuc(a1-2)[GalNAc(a1-4)]Gal(b1-4)GlcNAc", "method_in_brief": "as §1"}, "[16]": {"molecular_target": "Fuc(a1-2)[GalNAc(b1-3)]Gal", "method_in_brief": "as §1"}, "Fuc(a1-3)GlcNAc": {"molecular_target": "Fuc(a1-3)GlcNAc", "method_in_brief": "as §1"}, "[17]": {"molecular_target": "Fuc(a1-3)[Gal(b1-4)]Glc6S", "method_in_brief": "as §1"}, "[18]": {"molecular_target": "Fuc(a1-3)[Gal(b1-4)]GlcNAc", "method_in_brief": "as §1"}, "[19]": {"molecular_target": "Fuc(a1-3)[Gal(b1-4)]GlcNAc(b1-2)Man", "method_in_brief": "as §1"}, "[20]": {"molecular_target": "Fuc(a1-3)[Gal(b1-4)]GlcNAc(b1-2)Man(a1-3)[Fuc(a1-3)[Gal(b1-4)]GlcNAc(b1-2)Man(a1-6)]Man(b1-4)GlcNAc(b1-4)GlcNAc", "method_in_brief": "as §1"}, "[21]": {"molecular_target": "Fuc(a1-3)[Gal(b1-4)]GlcNAc(b1-2)Man(a1-3)[Fuc(a1-3)[Gal(b1-4)]GlcNAc(b1-2)Man(a1-6)]Man(b1-4)GlcNAc(b1-4)[Fuc(a1-6)]GlcNAc", "method_in_brief": "as §1"}, "[22]": {"molecular_target": "Fuc(a1-3)[Gal(b1-4)]GlcNAc(b1-3)Gal(b1-3)[Fuc(a1-4)]GlcNAc", "method_in_brief": "as §1"}, "[23]": {"molecular_target": "Fuc(a1-3)[Gal(b1-4)]GlcNAc(b1-3)Gal(b1-4)[Fuc(a1-3)]GlcNAc", "method_in_brief": "as §1"}, "[24]": {"molecular_target": "Fuc(a1-3)[Gal(b1-4)]GlcNAc(b1-3)Gal(b1-4)[Fuc(a1-3)]GlcNAc(b1-3)Gal(b1-4)[Fuc(a1-3)]GlcNAc", "method_in_brief": "as §1"}, "[25]": {"molecular_target": "Fuc(a1-3)[Gal(b1-4)]GlcNAc(b1-3)GalNAc", "method_in_brief": "as §1"}, "[26]": {"molecular_target": "Fuc(a1-3)[Gal(b1-4)]GlcNAc(b1-6)GalNAc", "method_in_brief": "as §1"}, "[27]": {"molecular_target": "Fuc(a1-3)[Gal(b1-4)]GlcNAc(b1-6)[Gal(b1-3)GlcNAc(b1-3)]Gal(b1-4)Glc", "method_in_brief": "as §1"}, "[28]": {"molecular_target": "Fuc(a1-3)[Gal(b1-4)]GlcNAc6S", "method_in_brief": "as §1"}, "[29]": {"molecular_target": "Fuc(a1-3)[Gal3S(b1-4)]Glc", "method_in_brief": "as §1"}, "[30]": {"molecular_target": "Fuc(a1-3)[Gal3S(b1-4)]GlcNAc", "method_in_brief": "as §1"}, "[31]": {"molecular_target": "Fuc(a1-3)[Gal3S(b1-4)]GlcNAc6S", "method_in_brief": "as §1"}, "[32]": {"molecular_target": "Fuc(a1-3)[GalNAc(b1-4)]GlcNAc", "method_in_brief": "as §1"}, "[33]": {"molecular_target": "Fuc(a1-3)[GalNAc(b1-4)]GlcNAc6S", "method_in_brief": "as §1"}, "Fuc(a1-4)GlcNAc": {"molecular_target": "Fuc(a1-4)GlcNAc", "method_in_brief": "as §1"}, "Fuc(b1-3)GlcNAc": {"molecular_target": "Fuc(b1-3)GlcNAc", "method_in_brief": "as §1"}, "Gal(a1-2)Gal": {"molecular_target": "Gal(a1-2)Gal", "method_in_brief": "as §1"}},
  "note": "This is one part of the list.",
  "data": [
    {"binder": "B1", "values": [
      {"measurement": "glycan array binding signal (z-score)", "setting": "[1]", "value": 0.031},
      {"measurement": "glycan array binding signal (z-score)", "setting": "[2]", "value": -0.164},
      {"measurement": "glycan array binding signal (z-score)", "setting": "[3]", "value": -0.151},
      {"measurement": "glycan array binding signal (z-score)", "setting": "[4]", "value": -0.18},
      {"measurement": "glycan array binding signal (z-score)", "setting": "[5]", "value": 0.08},
      {"measurement": "glycan array binding signal (z-score)", "setting": "[6]", "value": -0.28},
      {"measurement": "glycan array binding signal (z-score)", "setting": "[7]", "value": -0.096},
      {"measurement": "glycan array binding signal (z-score)", "setting": "[8]", "value": 0.019},
      {"measurement": "glycan array binding signal (z-score)", "setting": "[9]", "value": -0.149},
      {"measurement": "glycan array binding signal (z-score)", "setting": "[10]", "value": -0.121},
      {"measurement": "glycan array binding signal (z-score)", "setting": "[11]", "value": 0.103},
      {"measurement": "glycan array binding signal (z-score)", "setting": "[12]", "value": -0.227},
      {"measurement": "glycan array binding signal (z-score)", "setting": "[13]", "value": -0.264},
      {"measurement": "glycan array binding signal (z-score)", "setting": "[14]", "value": -0.129},
      {"measurement": "glycan array binding signal (z-score)", "setting": "[15]", "value": -0.211},
      {"measurement": "glycan array binding signal (z-score)", "setting": "[16]", "value": -0.33},
      {"measurement": "glycan array binding signal (z-score)", "setting": "Fuc(a1-3)GlcNAc", "value": -0.293},
      {"measurement": "glycan array binding signal (z-score)", "setting": "[17]", "value": 0.027},
      {"measurement": "glycan array binding signal (z-score)", "setting": "[18]", "value": -0.085},
      {"measurement": "glycan array binding signal (z-score)", "setting": "[19]", "value": -0.1},
      {"measurement": "glycan array binding signal (z-score)", "setting": "[20]", "value": -0.277},
      {"measurement": "glycan array binding signal (z-score)", "setting": "[21]", "value": -0.039},
      {"measurement": "glycan array binding signal (z-score)", "setting": "[22]", "value": -0.232},
      {"measurement": "glycan array binding signal (z-score)", "setting": "[23]", "value": 0.166},
      {"measurement": "glycan array binding signal (z-score)", "setting": "[24]", "value": -0.291},
      {"measurement": "glycan array binding signal (z-score)", "setting": "[25]", "value": -0.158},
      {"measurement": "glycan array binding signal (z-score)", "setting": "[26]", "value": -0.063},
      {"measurement": "glycan array binding signal (z-score)", "setting": "[27]", "value": -0.132},
      {"measurement": "glycan array binding signal (z-score)", "setting": "[28]", "value": 3.1},
      {"measurement": "glycan array binding signal (z-score)", "setting": "[29]", "value": -0.117},
      {"measurement": "glycan array binding signal (z-score)", "setting": "[30]", "value": -0.163},
      {"measurement": "glycan array binding signal (z-score)", "setting": "[31]", "value": -0.041},
      {"measurement": "glycan array binding signal (z-score)", "setting": "[32]", "value": -0.233},
      {"measurement": "glycan array binding signal (z-score)", "setting": "[33]", "value": -0.058},
      {"measurement": "glycan array binding signal (z-score)", "setting": "Fuc(a1-4)GlcNAc", "value": 0.021},
      {"measurement": "glycan array binding signal (z-score)", "setting": "Fuc(b1-3)GlcNAc", "value": -0.156},
      {"measurement": "glycan array binding signal (z-score)", "setting": "Gal(a1-2)Gal", "value": -0.148}
    ]}
  ]
}
